# Some of the results follow.
# T1: UNK ZnF1-3 (human, UniProt Q9C0B0 31-174)
# T1 sequence: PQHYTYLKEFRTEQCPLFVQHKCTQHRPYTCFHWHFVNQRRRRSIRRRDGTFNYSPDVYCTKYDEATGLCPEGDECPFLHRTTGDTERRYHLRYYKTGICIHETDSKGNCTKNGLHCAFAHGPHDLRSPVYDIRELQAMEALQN
# B1: 44549034_44549984_1913_CDS_ENSG00000138078_ENST00000409411|human|control|control (ssRNA)
# RNA: GGGAGUUCUACAGUCCGACGAUCAUAGCCUUCACCUGUGUCCUUAGCAUGCUCCGCGAUGGCUUCCUUGAGUUUCUCAGUAUAACUUACAAUUCCUUUCAGAGGUACCCGUUCAUCGUUUUCAUAUGCCGUUAUGUGAAUUGACAACAGAGGAUUGAGCAUCA
# B2: chr1:163115580:163115581:-_ENSG00000143248_ENST00000313961|hu_hu|motif|central (ssRNA)
# RNA: GGGAGUUCUACAGUCCGACGAUCUACAGUCACAUAGUUGCUUCACUUUCAAUAUUCUUAGGAAAUAACCAAAUAAAUGAGCGGCAAAUAUGAGAAACUGAGAGUGUGUGAAUGAAAGAGAGCAACAGAAGGAGGAAAUACAAGCAACAGAGGAUUGAGCAUCA
# B3: chr2:203071830:203071831:-_ENSG00000116030_ENST00000392246|hu_mus|FALSE|FALSE (ssRNA)
# RNA: GGGAGUUCUACAGUCCGACGAUCAGGGAGCUGAGGUCUGAUCACCAAAAAUCAGCACAACAAAAACAACCAAUAAUGAAUAUUGAACACUAGAAUUCAUAUGUUCUAAGAGAUGGAGUGCCAGUAUUCAAUUUUCAUUUUGAACAACAGAGGAUUGAGCAUCA
# B4: chr9:59188957:59188958:-_ENSMUSG00000025235_ENSMUST00000026265|mus_hu|FALSE|FALSE (ssRNA)
# RNA: GGGAGUUCUACAGUCCGACGAUCGGCCACCUGCUUGAGGUUAUCAGCACUCUGAGGACUAAGAACUGCACAUGUCUGGAAGAGUUCUAGGGAUUCUUGGAUAUUUCCUUCUAGGCGAAAUAUCAAUGCUUGGACAUAGAUAGCCAACAGAGGAUUGAGCAUCA
# B5: chr7:141438946:141438947:+_ENSG00000106028_ENST00000265304|hu_mus|FALSE|FALSE (ssRNA)
# RNA: GGGAGUUCUACAGUCCGACGAUCGACGAAAUACCUGUAACACAGGUCUUCGAAACAUGGCUUCUGUUUUUCUUACAACCUAAUCUUUAGGCUUUUCCUAAAGGAAAGAAAGAAAAGAGAAAAAUGAUAAAUCAAGAAACUACACAACAGAGGAUUGAGCAUCA
# B6: chr13:95058138:95058139:+_ENSG00000183098_ENST00000377047|hu_hu|motif|central (ssRNA)
# RNA: GGGAGUUCUACAGUCCGACGAUCAUUUCUCAUGUUAAAUUAGUCUGAAAAUCAUAUGACAUAGUAGUAUGAUGAUAAAAACGGGGAAGUACAACUUGAAUGAUAUUUUGACCACAUCCAUGCAGGGUGCUAACACUGUGACAUCAACAGAGGAUUGAGCAUCA
# B7: chr6:74304526:74304527:-_ENSG00000119899_ENST00000355773|hu_mus|FALSE|FALSE (ssRNA)
# RNA: GGGAGUUCUACAGUCCGACGAUCCAAGUUUAUCAGUGUGUGUGUGUGUGUGUGUGUCCAUUUCAGCUUCAUUUCCUAUGCCCUUACCUUAUAUCAUACUGCCUUUCCUGCAGCCUGAUAUGUGAACCCAGUAUACGGCCUGGCCAACAGAGGAUUGAGCAUCA
# B8: 23377108_23377228_938_3pUTR_ENSMUSG00000026158_ENSMUST00000027343|mouse|control|control (ssRNA)
# RNA: GGGAGUUCUACAGUCCGACGAUCUCCUGUCUCUAAUUGUAUAAACAAAGUACUCCAGAGCACUCUGCUUAAUAUUGGGAAUAGUAUUCUCCACUAGAGCCUCGUGAAGAAUGAAUUUUACCAGAGGAGAUUUAAAACUCUCGUCAACAGAGGAUUGAGCAUCA
# B9: chr16:46990514:46990515:-_ENSG00000069345_ENST00000317089|hu_mus|FALSE|FALSE (ssRNA)
# RNA: GGGAGUUCUACAGUCCGACGAUCCAAACCCAUUGUGUGCAAAGCCCAUUUUUCCAUGCAUCUAAAUGAUAGAUACAGGCUAUGAAUUCUUUAUUCUAUUUGUAGCAGCUUAUGCAGGUGCAGCCAAACACAAAGCUUCAGGACCAACAGAGGAUUGAGCAUCA
# B10: chr8:35901500:35901501:-_ENSMUSG00000031529_ENSMUST00000033929|mus_mus|FALSE|FALSE (ssRNA)
# RNA: GGGAGUUCUACAGUCCGACGAUCUAUAUAACAUGAUCUGUCUUUGUGUGUGGGACAGCCUGUUCCUCCUCCAAUUCCAUAAACAUACUGAUUGCUUUUUGAGGAGUUUUCAGCAAAGUAAAUUCCAGCUCCAAACAUCCCUCCCAACAGAGGAUUGAGCAUCA
# B11: chr17:2203652:2203653:-_ENSG00000070366_ENST00000263073|hu_hu|motif|central (ssRNA)
# RNA: GGGAGUUCUACAGUCCGACGAUCUCGUCCAGGCUGAUAGAUCUGCAGGUCGGGUUUCUUUGUUCUUUUGAUAAUUUUUAGACGGCGAUCCUCUUGUCCAGCAGUCCUAGGAAAGGAUUCUUGUCCCCGAUUAUUUUCUGGGUCCAACAGAGGAUUGAGCAUCA
# B12: chr11:77336104:77336105:-_ENSG00000074201_ENST00000525064|hu_mus|hu_hu_hu_mus_False|98_98 (ssRNA)
# RNA: GGGAGUUCUACAGUCCGACGAUCCUCACACAUUGCUGUGAACAUUGCCUCCAAUGCUGACUUAUCACUGGGCACAAAUCGAAAUUCAGAAAUGGGUUCAACAUCAUCAUUGUCUUCCUCAUCUUCAUCAGAGAGAGGUUCUUUCAACAGAGGAUUGAGCAUCA
# B13: chr19:55172109:55172110:-_ENSMUSG00000024978_ENSMUST00000061856|mus_hu|motif|central (ssRNA)
# RNA: GGGAGUUCUACAGUCCGACGAUCGUGUGCUUACAUCGACCAACACUGUAUUCUGAUGAAUGUGGCAGAUAAGAAACAUCGGUUGUACCAAGGGUCAGUGCAGAUUCAUCCAUGUCACAAAGUGUAAUUCCCAAAUCAUGUGCUCAACAGAGGAUUGAGCAUCA
# B14: chr10:33214929:33214930:-_ENSG00000150093_ENST00000302278|hu_hu|hu_hu_hu_mus_True|38_98 (ssRNA)
# RNA: GGGAGUUCUACAGUCCGACGAUCAACAAGUUCAUUGAAUACUUCUCCUCUGUCAGUAAGACUAAGCACAUUUUUGUAGCUAAAUGGGCUGGUGCAGUUCUGUUCACUUGUACAAGGAUUUCUUAGCUUUGCUGGGGUUGUGCUCAACAGAGGAUUGAGCAUCA
# Molecular target: T1, UNK ZnF1-3
# Assay: nsRBNS (natural sequence RNA bind-n-seq); RBNS binding buffer (assumed for nsRBNS): 25 mM Tris pH 7.5, 150 mM KCl, 3 mM MgCl2, 0.01% Triton X-100, 500 ug/ml BSA, 20 U/ml SUPERase-In, 4 C; UNK is unkempt and MSI1 is Musashi-1; names of the RNAs are library labels; protein concentration not given here; high values mean tight binding
row,Binder,binding signal [enrichment R]
1,B1,0.742
2,B2,1.59
3,B3,1.14
4,B4,1.49
5,B5,0.551
6,B6,1.12
7,B7,0.708
8,B8,0.808
9,B9,1.35
10,B10,1.03
11,B11,0.875
12,B12,0.863
13,B13,0.718
14,B14,0.715

# Reference: paper PMC12136788
